# Experimental data reported in the RNAGym collection of RNA variant scans (doi:10.1073/pnas.2313332121).
# Variants at the floor of the assay are shown more often than the library holds them.
# B1: TPR 5TU (parent)
# chain: GGAUCUUCUCGAUCUAACAAAAAAGACAAAUCUGCCACAAAGCUUGAGAGCAUCUUCGGAUGCAGAGGCGGCAGCCUUCGGUGGCGCGAUAGCGCCAACGUUCUCAACUAUGACACGCAAAACGCGUGCUCCGUUGAAUGGAGUUUAUCAUG
# Variants of: B1
# Assay: polymerase ribozyme fitness, log enrichment relative to wild type (log ratio); higher = more active; in vitro selection for triplet polymerase activity
# Summary of the method: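 One round of in vitro selection, in triplicate, was applied to PCR-built, transcribed mutant libraries of each subunit of a heterodimeric triplet polymerase ribozyme. The steps were annealing with a biotinylated primer, partner subunit and triplets, incubation frozen at −7 °C, gel excision of extended constructs, streptavidin-bead capture and RT-PCR. Fitness is the logarithm, base 2, of genotype enrichment over wild-type enrichment from inverse-variance-weighted replicate averages of Illumina-sequenced inputs and outputs, keeping genotypes with ≥10 input reads and ≥1 read per output.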
row,Variant,polymerase ribozyme fitness (log ratio)
1,A28C U53A G92A,≤ -4.2
2,C27U G50C G141A,-4.12
3,A29C C36A G117U G140A,≤ -4.2
4,A28U C57U G58U A60G C75A G124C C125U G136U U144C,≤ -4.2
5,C27U A91G C99G A147C,≤ -4.2
6,A29U G84A C96G U139G,≤ -4.2
7,A28C C36U U55A C57U C63G C95A C116A U151A,≤ -4.2
8,A29U G86U A147C,≤ -4.2
9,A29C A52G G83C A106C,≤ -4.2
10,A29G G70A A120U G143A A150C,≤ -4.2
11,A28U G42A U53A G71A C93G,≤ -4.2
12,A28C A40G A106G,≤ -4.2
13,A28C A40U G48A G58U,≤ -4.2
14,A29U C51G A52C C93U A98U A138G,≤ -4.2
15,A28G A30U G50C G83C G126U G133C,≤ -4.2
16,A28C U78G C96G U148G,≤ -4.2
17,A28G A29U A49U G67C C85U U90G C96G,≤ -4.2
18,A28U A66C U78G G84A C95G C105A C123A,≤ -4.2
19,A29U A64U G80A,≤ -4.2
20,A28G A66C,≤ -4.2
21,C27U C87G C108U,≤ -4.2

row,Variant,polymerase ribozyme fitness (log ratio)
1,A29G U45G C96G,≤ -4.2
2,A29G G59A U77A C93U G100A U109G C116U G126U,≤ -4.2
3,A29U C76U G88U C95A U145C,≤ -4.2
4,A29G C105G U146G,≤ -4.2
5,A29C A49U A52U G83C C99A U144C U145A,≤ -4.2
6,A28G A37U C116G C129A,≤ -4.2
7,A28U C93U C118U A121G,≤ -4.2
8,A29U A30C U78C C87U A89U,≤ -4.2
9,A28C A47G G48A C63U G83A C118U,≤ -4.2
10,A28U A41C G67U U78A G88A C96G A107U G117C,≤ -4.2
11,C27U C79U C87G U90C C96U A121U A150G,≤ -4.2
12,A28U A49G C54A C93U U144C,≤ -4.2
13,A29U A40G A41U,≤ -4.2
14,C27U U31A A60U A66C C85U C87G G141U,≤ -4.2
15,A29C G58C C69U G71U,≤ -4.2
16,A29U G68A,≤ -4.2
17,A29G A60U C131G,≤ -4.2
18,A28G C93U U127C,≤ -4.2
19,A28U C72G A107C G126U U144C,≤ -4.2
20,A28C A52G U82C C93U C95U U134A U146G,≤ -4.2
21,A28U C36G A49C G67A,≤ -4.2

row,Variant,polymerase ribozyme fitness (log ratio)
1,A29C A41C G62A G84A U90A C118G,≤ -4.2
2,A28C C85G A106C A113C,≤ -4.2
3,A28C G50C C99U A107U A142U A150G,≤ -4.2
4,A28C A98G,≤ -4.2
5,A28C C32U G50C G58A C95U G117A,≤ -4.2
6,A29U A52C C57U C87G G126C,≤ -4.2
7,A29U A91C C132U,≤ -4.2
8,A28U C36A A40U U82A G86A A113C,≤ -4.2
9,C27U C38G C87A U102A C103G,≤ -4.2
10,C27U G70A C87A,≤ -4.2
11,A29G U56A G59U G84A A98G A107U,≤ -4.2
12,A29C C35G G48U G81C A121G,≤ -4.2
13,A28G A49U U56A A66U U90G A106U C108G A119G,≤ -4.2
14,A28U A29U A41C G86A A115U,≤ -4.2
15,A29G A39G U82A G86U U135C,≤ -4.2
16,A28U G83C U111A U145C,≤ -4.2
17,A28U A41C G86A C105U C114U U146G,≤ -4.2
18,C27U C43A C75U C96U C105A,≤ -4.2
19,A29U G48U C114U A150G,≤ -4.2
20,A28G U56A G136C,≤ -4.2
21,A28C G80C U82G G88C U130C,≤ -4.2

row,Variant,polymerase ribozyme fitness (log ratio)
1,A29C C38U C54A U55A C75G C132G U134C,≤ -4.2
2,A28U G83C G92U C96U,≤ -4.2
3,A28U A52G A97U A113U U134C,≤ -4.2
4,A29U A49C C63U C116U G133C U139A U146A,≤ -4.2
5,A29G G34A C35G C87U C95G,≤ -4.2
6,A28U A37U U55A G68A C72A C85U C95U,≤ -4.2
7,A29U G92A,≤ -4.2
8,A29G A30U C85A A107U C118G,≤ -4.2
9,A28G C108G U139G,≤ -4.2
10,A28U A37C G59U U61A U77G U78G C95U C103U C149U A150G,≤ -4.2
11,A28U C43U G58C A66C G68C C85U C108A,≤ -4.2
12,A29U A66U C79A G83A C96A A142U,≤ -4.2
13,A28U A29U A37G A66U A73U U78G G84A,≤ -4.2
14,A29G C87A A110C G141U,≤ -4.2
15,A29G C95G C118G G133A,≤ -4.2
16,C27U C57A G68C C75U A91G U130G,≤ -4.2
17,A29C U55A A91C C93G,≤ -4.2
18,A28G C32G C36U C57U C75G,≤ -4.2
19,A28U A49C A66G C93U A98G,≤ -4.2
20,A29U G59C G88U C95G,≤ -4.2
